The campaign covered roughly 39,000 compounds. About 220 (0.56%) showed activity. This is one part of the list.
system: Escherichia coli K-12 BW25113; experiment: relative growth (OD600 normalised to plate interquartile mean) (fraction); higher = less growth inhibition, active = 0.2 or less; conditions: 50 µM; LB; incubation time: overnight (16-24 h)
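Also: static incubation at 37 °C against the wild-type strain, values averaged over two biological replicates.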

Structure (SMILES)	relative growth
C[C@H](CO)N1C[C@H](C)[C@@H](CN(C)C(=O)CN2CCOCC2)Oc2ncc(/C=C/c3ccccc3)cc2C1=O	inactive: 0.995
C[C@@H]1CCCCO[C@@H](CN(C)Cc2ccc(C(=O)O)cc2)[C@H](C)CN([C@@H](C)CO)C(=O)c2cc(NC(=O)CCC(F)(F)F)ccc2O1	inactive: 1.03
COCC#Cc1cnc2c(c1)C(=O)N([C@H](C)CO)C[C@H](C)[C@H](CN(C)C(=O)Nc1ccc(OC)cc1)O2	inactive: 1
C[C@@H]1CCCCO[C@H](CN(C)Cc2ccc3c(c2)OCO3)[C@H](C)CN([C@@H](C)CO)C(=O)c2cc(NS(=O)(=O)c3ccc(Cl)cc3)ccc2O1	inactive: 0.98
CC(C)(C)[S@@](=O)N1Cc2cc(C(=O)N3CCc4ccccc4C3)nc(-c3cccc(-c4ccncc4)c3)c2[C@H]1CCO	inactive: 0.961
Nc1nnc(CNC(=O)c2ccccc2)[nH]1	inactive: 1.05
C[C@@H]1CCCCO[C@@H](CN(C)C(=O)c2ccccc2)[C@H](C)CN([C@@H](C)CO)C(=O)c2cc(NS(=O)(=O)c3cccs3)ccc2O1	inactive: 0.999
Cc1noc(C)c1NC(=O)Nc1ccc2c(c1)CC(=O)N([C@@H](C)CO)C[C@H](C)[C@H](CN(C)Cc1ccc(C(F)(F)F)cc1)O2	inactive: 0.958
Nc1ccccc1C(=O)N[C@H]1CCCCNC1=O	inactive: 0.968
CN(C)CC(=O)N[C@H]1C=C[C@@H](CC(=O)NCCN2CCCCC2)O[C@H]1CO	inactive: 0.932
Cc1ccc(S(=O)(=O)Nc2ccc3c(c2)CC(=O)N([C@H](C)CO)C[C@@H](C)[C@@H](CN(C)S(=O)(=O)c2cccs2)O3)cc1	inactive: 1.01
Cn1cnc2c1[C@H](C(=O)N1CCN(c3ccccc3)CC1)N(S(C)(=O)=O)CC2	inactive: 1.01
CC(C)NC(=O)Nc1ccc2c(c1)C(=O)N([C@@H](C)CO)C[C@@H](C)[C@@H](CN(C)S(=O)(=O)c1cccs1)O2	inactive: 0.997
CN1CCCCC[C@@H]1C(=O)O	inactive: 1.01
C[C@@H]1CN([C@@H](C)CO)C(=O)c2cc(NC(=O)Nc3cccc4ccccc34)ccc2O[C@H]1CN(C)Cc1ccc2c(c1)OCO2	inactive: 0.987
COc1cc(OC)c(C(C)=O)c(O)c1C	inactive: 0.941
C[C@@H]1CCCCO[C@H](CN(C)C(=O)Nc2cccc3ccccc23)[C@@H](C)CN([C@H](C)CO)C(=O)c2cc(NC(=O)Cc3ccccc3)ccc2O1	inactive: 1.03
C[C@@H]1CCn2cc(nn2)COC[C@@H](Cc2ccccc2)NC(=O)[C@H](C)CCn2cc(nn2)COC[C@@H](Cc2ccccc2)NC1=O	inactive: 0.997
CC=Cc1ccc2n(c1=O)C[C@H]1[C@H](CO)[C@@H](C(=O)NCCCN3CCOCC3)[C@@H]2N1Cc1cocn1	inactive: 0.973
O=c1[nH]c(=O)n(C2CC(O)C(CO)O2)cc1C(F)(F)F (stereo not drawn)	inactive: 0.956

Structure (SMILES)	relative growth
C[C@@H]1CN([C@H](C)CO)C(=O)Cc2cc(NS(=O)(=O)c3cccs3)ccc2O[C@H]1CN(C)C(=O)Nc1cccc2ccccc12	inactive: 0.988
CN1C(C)(C)CCCC1(C)C	inactive: 0.979
Nc1nonc1C(=O)N1CCCCC1	inactive: 1.02
C[C@H]1CN([C@@H](C)CO)C(=O)c2cc(NC(=O)c3ccncc3)ccc2O[C@@H]1CN(C)C(=O)Nc1ccc2c(c1)OCO2	inactive: 0.977
C[C@@H]1CCCCO[C@@H](CN(C)Cc2ccccc2)[C@H](C)CN([C@H](C)CO)C(=O)c2cc(NC(=O)NC3CCCCC3)ccc2O1	inactive: 0.971
Cc1cc(O)c(C=O)c2c1C(=O)Oc1c(C)c(O)c3c(c1O2)C(O)OC3=O (stereo not drawn)	inactive: 0.948
COc1ccc2c(c1)[C@]1(C[C@H]1c1ccc3c(/C=C/c4ccc(CN5C[C@@H](C)O[C@@H](C)C5)cc4)[nH]nc3c1)C(=O)N2	inactive: 1.04
Cc1ccc(S(=O)(=O)Nc2ccc3c(c2)C(=O)N([C@@H](C)CO)C[C@H](C)[C@@H](CN(C)C(=O)Nc2cccc4ccccc24)OCCCC[C@@H](C)O3)cc1	inactive: 0.987
C[C@@H]1CCCCO[C@@H](CN(C)Cc2ccc(C(F)(F)F)cc2)[C@@H](C)CN([C@H](C)CO)C(=O)c2cc(NC(=O)CCCCCC(=O)Nc3ccccc3N)ccc2O1	inactive: 1.05
CCCN1C(=O)[C@@]2(c3ccc([N+](=O)[O-])cc3)CC(=O)N(CC34CC5CC(CC(C5)C3)C4)[C@@H]2c2ccc(CO)cc21	inactive: 0.998
CNC[C@H]1Oc2c(NS(=O)(=O)c3cn(C)cn3)cccc2C(=O)N([C@H](C)CO)C[C@H]1C	inactive: 1.01
O=C(Cc1ccc2c(c1)OCO2)N[C@@H]1CCNC[C@H]1O	inactive: 0.987
COCC(=O)N(C)C[C@H]1Oc2cc(-c3ccc(C#N)cc3)ccc2S(=O)(=O)N([C@H](C)CO)C[C@@H]1C	inactive: 1.01
COc1ccc2c3c(n(c2c1)C)[C@H](CO)N(Cc1ccccc1F)C[C@]13CN(C1)C(=O)C1CCOCC1	inactive: 1.03
C[C@@H]1CN([C@H](C)CO)C(=O)c2cc(NC(=O)Nc3ccc4c(c3)OCO4)ccc2O[C@@H](C)CCCCO[C@H]1CN(C)C(=O)c1ccccc1	inactive: 1.01
Cc1ccc(S(=O)(=O)N(C)C[C@H]2OCCCC[C@@H](C)Oc3ccc(NC(=O)Cc4ccccc4)cc3C(=O)N([C@@H](C)CO)C[C@@H]2C)cc1	inactive: 0.997
C[C@H]1CN([C@@H](C)CO)C(=O)Cc2cc(NC(=O)Cc3ccccc3)ccc2O[C@H]1CN(C)S(=O)(=O)c1ccc(F)cc1	inactive: 1.01
O=C(CCCCCCC(=O)Nc1ccc([C@H]2O[C@@H](CN3CCCCCCC3)C[C@H](c3ccccc3)O2)cc1)NO	inactive: 1.02
CO[C@H](CN(C)S(=O)(=O)c1ccc(C)cc1)[C@@H](C)CN([C@@H](C)CO)S(=O)(=O)c1cccc(Cl)c1	inactive: 1.02
C=CC1=C(C(=O)O)N2C(=O)[C@@H](NC(=O)/C(=N\OCC(=O)O)c3csc(N)n3)[C@H]2SC1	active: 0.0479

Structure (SMILES)	relative growth
Cc1ccc(S(=O)(=O)Nc2ccc3c(c2)CC(=O)N([C@H](C)CO)C[C@H](C)[C@@H](CN(C)Cc2ccc(Cl)c(Cl)c2)O3)cc1	inactive: 0.96
COc1ccc(S(=O)(=O)Nc2ccc3c(c2)C(=O)N([C@@H](C)CO)C[C@@H](C)[C@H](CN(C)Cc2ccc(Oc4ccccc4)cc2)O3)cc1	inactive: 0.985
C[C@H]1CN([C@@H](C)CO)C(=O)c2cc(NC(=O)Nc3ccc4c(c3)OCO4)ccc2O[C@@H]1CN(C)Cc1ccc(-c2ccccc2)cc1	inactive: 0.995
CO[C@H]1C[C@@H](C[C@@H](C)[C@H]2CC(=O)[C@@H](C)/C=C(/C)[C@@H](O)[C@@H](OC)C(=O)[C@@H](C)C[C@@H](C)C=C/C=C\C=C(C)[C@H](OC)C[C@H]3CC[C@@H](C)[C@@](O)(O3)C(=O)C(=O)N3CCCC[C@@H]3C(=O)O2)CC[C@@H]1O	inactive: 0.99
CN(C)C(=O)C[C@H]1C=C[C@H](NC(=O)C2CCOCC2)[C@@H](CO)O1	inactive: 0.992
C[C@@H]1CCCCO[C@H](CN(C)C(=O)Nc2cccc3ccccc23)[C@H](C)CN([C@@H](C)CO)C(=O)c2cc(NC(=O)Nc3ccc(F)cc3)ccc2O1	inactive: 1.02
COCC(=O)N(C)C[C@@H]1Oc2cc(C#C[C@@H](C)O)ccc2S(=O)(=O)N([C@H](C)CO)C[C@@H]1C	inactive: 1.03
C[C@H]1CCCCO[C@H](CN(C)C(=O)Nc2ccc(C(F)(F)F)cc2)[C@@H](C)CN([C@@H](C)CO)C(=O)c2cc(NS(=O)(=O)c3ccc(F)cc3)ccc2O1	inactive: 1.01
C=CCOC(=O)[C@H]1[C@@H]2C(=O)O[C@@H](c3ccccc3)[C@@H](c3ccccc3)N2[C@@H](c2ccc(OCCOC(=O)[C@@H]3C[C@@H]4C(=O)N5CCC[C@H]5C(=O)N4[C@@H]3c3cccc(OCCO)c3)cc2)[C@]12C(=O)Nc1ccc(I)cc12	inactive: 1.02
COc1ccc(CN(C)C[C@H]2OCCCC[C@H](C)Oc3ccc(NC(=O)C4CCCCC4)cc3C(=O)N([C@H](C)CO)C[C@H]2C)cc1	inactive: 0.982
C[C@H]1CN([C@@H](C)CO)C(=O)c2cccc(NS(=O)(=O)c3cn(C)cn3)c2O[C@@H]1CN(C)Cc1ccc(C(=O)O)cc1	inactive: 0.994
Oc1cccc(c1)/C/1=C/2\CC/C(=C(\c3cccc(c3)O)c3ccc([nH]3)/C(=C\3/C=CC(=N3)/C(=C\3/C=CC1=N3)c1cccc(c1)O)c1cccc(c1)O)N2	inactive: 1.16
CC(C)NC(=O)Nc1ccc2c(c1)C(=O)N([C@@H](C)CO)C[C@H](C)[C@H](CN(C)Cc1ccc(C(=O)O)cc1)O2	inactive: 1
C[C@@H]1CN([C@H](C)CO)C(=O)c2cc(NC(=O)Nc3ccc(C(F)(F)F)cc3)ccc2O[C@@H]1CN(C)Cc1ccc(Cl)c(Cl)c1	inactive: 1.01
CCCCC(=O)c1ccc(O)cc1	inactive: 0.939
Cc1ccc(CCSc2ccc(Cl)c(Cl)c2)cn1	inactive: 0.961
COc1ccc(C#Cc2ccc3c(c2)[C@]2(C(=O)N3)[C@H](c3ccccc3OCCO)N3[C@H](c4ccccc4)[C@H](c4ccccc4)OC(=O)[C@H]3[C@@H]2C(=O)N2CCc3cc(OC)c(OC)cc3C2)cc1	inactive: 1.07
C[C@@H]1CN([C@@H](C)CO)C(=O)c2cccc(NC(=O)Nc3ccc(C(F)(F)F)cc3)c2O[C@@H]1CN(C)S(C)(=O)=O	inactive: 0.88
